Assay results taken from the supplement of paper PMC4166925.
± gives the standard deviation of the averaged measurements. Over roughly 33,000 sequences, “E-score (dimensionless, -0.5 to 0.5)” has its median near -0.046; the highest 2% begin near 0.36. The list shows a part of the results.

Test system: T1, SpTbr T-box DNA-binding domain (GST fusion)
T1 sequence: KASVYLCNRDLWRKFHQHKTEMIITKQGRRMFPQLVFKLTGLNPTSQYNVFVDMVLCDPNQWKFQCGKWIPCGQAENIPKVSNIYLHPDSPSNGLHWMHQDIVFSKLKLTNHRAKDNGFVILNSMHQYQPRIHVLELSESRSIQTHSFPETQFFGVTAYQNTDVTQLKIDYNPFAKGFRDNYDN
Experiment: PBM E-score of 8-mer (E-score (dimensionless, -0.5 to 0.5)); Tbr is Tbrain of the sea star Patiria miniata (Pm) or the sea urchin Strongylocentrotus purpuratus (Sp); higher = stronger binding preference; most listed sequences are background and not binding sites
Details: the construct has about 5 more residues each side
Protocol: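 Universal protein-binding microarray (Agilent AMADID 016060, 60-bp probes with a 35-bp variable region) incubated with 200 nM GST-fused Strongylocentrotus purpuratus Tbr T-box DNA-binding domain (residues 362-554) in PBS pH 7.5. Scored for every ungapped 8-mer (given with its reverse complement) as E-score (range -0.5 to 0.5; >0.45 counts as bound) and Z-score of median probe intensity. Two replicate arrays (datasets 1 and 2).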
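Further: protein at 200 nM in PBS on universal double-stranded arrays.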

Row | Sequence | PBM E-score of 8-mer
1 | GGAAGTTA | -0.0319 ± 0.0054
2 | AATCAAAC | 0.0427 ± 0.047
3 | GGTTCATA | -0.0395 ± 0.039
4 | CCCCCCGG | -0.235 ± 0.0081
5 | CGATCTAC | -0.0987 ± 0.0049
6 | GTTGCTAA | 0.223 ± 0.048
7 | CTGTGAAG | 0.296 ± 0.027
8 | CCCTGTGA | 0.052 ± 0.031
9 | CGAACAGC | 0.0761 ± 0.05
10 | CCTGTTAC | 0.177 ± 0.0078
11 | ACCTGATA | 0.0567 ± 0.051
12 | CCCGTTCA | 0.0431 ± 0.035
13 | CCAACAGG | 0.0658 ± 0.0022
14 | CTATATAC | 0.0352 ± 0.036
15 | AAAGGGGG | -0.2361 ± 0.0016
16 | TTGACAAA | 0.288 ± 0.067
17 | ACAATCGT | 0.12 ± 0.013
18 | GGTACTAA | -0.072 ± 0.0098
19 | GTGGCTAA | 0.033 ± 0.025
20 | ACGATCCC | 0.0353 ± 0.042
21 | CCAAGCGG | -0.256 ± 0.035
22 | AGAGCAAG | -0.123 ± 0.067
23 | ACACGAGT | 0.0737 ± 0.029
24 | CGTCCATA | 0.0256 ± 0.013
25 | GCGGTATA | -0.177 ± 0.057

Row | Sequence | PBM E-score of 8-mer
26 | GGCCACCA | -0.0858 ± 0.015
27 | CGGAATTA | -0.216 ± 0.0064
28 | CTTATCAC | 0.322 ± 0.033
29 | GGATGCGA | 0.108 ± 0.094
30 | AGGAAACT | -0.0834 ± 0.015
31 | ACCCTATA | -0.177 ± 0.11
32 | ATTCCATC | -0.0667 ± 0.01
33 | GGCCTTAC | -0.0589 ± 0.025
34 | CGGGCGGA | -0.172 ± 0.047
35 | AAAGATAA | -0.0695 ± 0.021
36 | CAGGACCG | -0.247 ± 0.039
37 | CTACAGGA | 0.0135 ± 0.032
38 | AAATGATC | 0.0233 ± 0.019
39 | CGGGCTCC | -0.273 ± 0.016
40 | GCCAATTA | 0.0843 ± 0.028
41 | ACGTTTAG | -0.15 ± 0.086
42 | CGTGTGTC | 0.172 ± 0.058
43 | ATGCTTCG | 0.0174 ± 0.071
44 | ACAGGATC | 0.00176 ± 0.0086
45 | CTCACGTC | 0.247 ± 0.03
46 | CGGGACTA | -0.105 ± 0.035
47 | AAAATATG | -0.255 ± 0.038
48 | GAAACGAA | 0.101 ± 0.038
49 | CCCAATTA | -0.0909 ± 0.1
50 | CCACATGA | 0.11 ± 0.048

Row | Sequence | PBM E-score of 8-mer
51 | GAAGTGAC | 0.3632 ± 0.0018
52 | CGAAGGGC | -0.145 ± 0.025
53 | ACAATAAT | 0.0607 ± 0.029
54 | CGACCTCG | 0.0365 ± 0.0097
55 | TCACGAGA | 0.172 ± 0.024
56 | CACTCCTG | 0.091 ± 0.035
57 | ACTGAAGC | 0.0518 ± 0.056
58 | GCACCAGA | -0.033 ± 0.019
59 | AGCCGCAA | 0.1248 ± 0.00087
60 | CCGCTTTC | -0.0817 ± 0.04
61 | GGGCTTCA | -0.169 ± 0.0053
62 | ATAGTCAG | 0.0204 ± 0.017
63 | CAAACGCG | 0.0349 ± 0.059
64 | GCGTTAGA | 0.15 ± 0.005
65 | AATTAACG | -0.00363 ± 0.0013
66 | ATTACCTC | -0.204 ± 0.05
67 | AACGCGAC | 0.201 ± 0.06
68 | ATGCAAAG | -0.0736 ± 0.041
69 | TGCCGACA | 0.27 ± 0.015
70 | CCATTGTA | -0.103 ± 0.047
71 | TACAAGCA | 0.00511 ± 0.0098
72 | AATGCACT | 0.035 ± 0.052
73 | ACGTATAT | -0.0745 ± 0.0049
74 | CCCGAAAC | -0.051 ± 0.055
75 | ATCTGGTC | -0.136 ± 0.039

Row | Sequence | PBM E-score of 8-mer
76 | TGATGCAA | -0.0481 ± 0.027
77 | GACAAACA | 0.113 ± 0.046
78 | ACCCGGAA | -0.289 ± 0.03
79 | GTCTAGAA | -0.242 ± 0.049
80 | TATTTAGA | -0.168 ± 0.1
81 | CTGAAGGC | -0.119 ± 0.067
82 | CATCCCCG | -0.117 ± 0.0087
83 | CAAAATTC | -0.221 ± 0.0047
84 | ATGATAGC | 0.00685 ± 0.007
85 | GAAAGTCA | -0.165 ± 0.04
86 | AAAGCCCA | -0.365 ± 0.048
87 | AAGAATTA | -0.121 ± 0.087
88 | GCTTACGA | -0.0927 ± 0.017
89 | CGTCTCAA | -0.174 ± 0.06
90 | AAAGAAAA | -0.167 ± 0.11
91 | GTAATAGA | -0.0136 ± 0.055
92 | ATTCTAAC | -0.255 ± 0.06
93 | AATTTACA | 0.143 ± 0.08
94 | AGTATACG | 0.0625 ± 0.0019
95 | CCCCTTAC | -0.133 ± 0.057
96 | CAATAGCA | 0.0374 ± 0.022
97 | ACTACGCC | 0.0466 ± 0.028
98 | ATAACATC | -0.0812 ± 0.032
99 | ACTGGGTC | -0.102 ± 0.054
100 | TGGCGCCA | 0.338 ± 0.027

Row | Sequence | PBM E-score of 8-mer
101 | GGAAAGAA | -0.287 ± 0.0031
102 | ATGGTATA | -0.0833 ± 0.077
103 | TGCGCCAA | 0.16 ± 0.021
104 | CGGGGTCA | -0.162 ± 0.032
105 | CCTGGGAC | -0.141 ± 0.022
106 | CCCTCCCA | -0.153 ± 0.058
107 | AACAAGTA | 0.154 ± 0.015
108 | AACCTCTG | -0.137 ± 0.075
109 | GTTCAATA | -0.174 ± 0.0066
110 | AAGATCCA | -0.122 ± 0.0018
111 | CTTTCTTA | -0.0347 ± 0.024
112 | CTTCCGGA | -0.295 ± 0.023
113 | AGTACGCG | -0.0599 ± 0.077
114 | GACTCGGC | -0.0487 ± 0.0043
115 | GCGTAATA | 0.0418 ± 0.021
116 | TATCCCCA | -0.254 ± 0.023
117 | GAATAGTC | -0.113 ± 0.021
118 | ATGGGAAA | -0.2619 ± 0.002
119 | CACTCCAA | -0.08 ± 0.041
120 | CAAAAGTC | 0.00208 ± 0.0086
121 | ATAGCTCC | -0.185 ± 0.016
122 | GCTATACA | -0.182 ± 0.023
123 | ACCATAGT | -0.151 ± 0.02
124 | GTGTCTTA | -0.0357 ± 0.034
125 | CGCCATCC | 0.0293 ± 0.0097

Row | Sequence | PBM E-score of 8-mer
126 | GTAAACAA | 0.15 ± 0.041
127 | AAACGAGT | 0.0307 ± 0.0047
128 | AACGATGC | 0.0143 ± 0.033
129 | AGTTTCAA | -0.224 ± 0.014
130 | CTCAATGC | -0.0158 ± 0.0095
131 | ATGTTGAA | -0.1 ± 0.035
132 | AGCTCCTC | -0.213 ± 0.031
133 | CCGTGCCC | -0.244 ± 0.013
134 | TCCACGAA | -0.18 ± 0.043
135 | CATGAGGA | -0.28 ± 0.04
136 | CCCCACGA | 0.105 ± 0.026
137 | GACATTAA | -0.109 ± 0.042
138 | CGACTTGC | 0.0423 ± 0.016
139 | TACAGCTA | -0.231 ± 0.11
140 | CGTGAAAC | 0.338 ± 0.0092
141 | ACAATGAT | 0.0691 ± 0.01
142 | GTGAGGAA | 0.3085 ± 0.00095
143 | ACGCAAAT | 0.0967 ± 0.016
144 | GTTGCGAA | 0.393 ± 0.0099
145 | TCGGGCAA | 0.0261 ± 0.044
146 | AGACAGCG | -0.00288 ± 0.048
147 | GTCGGTAA | 0.0939 ± 0.0036
148 | ATATAAAC | -0.214 ± 0.1
149 | CGCACGGC | 0.0428 ± 0.025
150 | AGTCGGCC | -0.169 ± 0.029

Row | Sequence | PBM E-score of 8-mer
151 | GGGTTTAA | 0.0146 ± 0.03
152 | GAGGAATC | 0.0233 ± 0.0064
153 | AATAACCA | -0.195 ± 0.027
154 | AATACAAC | -0.151 ± 0.069
155 | CTTACCAC | 0.218 ± 0.022
156 | ATGATTAC | 0.000845 ± 0.044
157 | ACATTCAG | -0.015 ± 0.018
158 | AGCCAGTA | -0.0497 ± 0.051
159 | AAATAAAA | -0.0429 ± 0.1
160 | TAGATATA | -0.135 ± 0.043
161 | AACACACG | 0.211 ± 0.033
162 | TGCACCAA | -0.0221 ± 0.038
163 | TATGTTCA | 0.049 ± 0.067
164 | AGGCTGCC | -0.0324 ± 0.034
165 | CATACACC | 0.142 ± 0.057
166 | AACGTTGA | -0.00954 ± 0.074
167 | CAAGGGTA | -0.0666 ± 0.024
168 | CGATTGTA | -0.0533 ± 0.023
169 | ATTGCCTC | -0.203 ± 0.03
170 | CTCGATTA | 0.00121 ± 0.031
171 | CGGGCGTC | 0.117 ± 0.01
172 | CGGAGAGC | -0.145 ± 0.016
